Test results published in PubChem BioAssay AID588855 (National Center for Advancing Translational Sciences (NCATS), 2011).
The whole screen tested about 410,000 compounds, of which about 5,000 (1.2%) were called active. Inconclusive means that the source gave no clear call. Such entries were picked first, then a sample of the others. Calls come from the whole dose curve; as a rule, active = well fitted inhibition curve with a large enough effect; inconclusive = small, poorly fitted or top-dose-only effect; inactive = no such curve, though single readings can be large or run the other way. Potencies beside an inconclusive call are fits to weak or partial responses and may not hold up. The source holds several records for some structures; these can differ, active in one and inactive in another.

Experiment: qHTS for Inhibitors of TGF-b; note: nearly all actives have a fitted effect of over 65% in size
Conditions: HepG2 CAGA-GFP TGF-b/SMAD3 reporter, GFP fluorescence, 18 h, TGF-beta stimulated, 500 pg/mL final; series mostly up to 46.1 µM; activity, negative = inhibition: at the top concentration
Method in brief: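 Per well, imaged GFP fluorescence of HEPG2 CAGA-GFP cells gives the signal; cells get compound, then TGF-beta (500 pg/mL final), 18 h at 37 degrees C; %Activity versus -TGF-beta and +DMSO controls.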
% is set by controls: 0 for no effect and ±100 for the full control effect; potency is the fitted concentration of half-maximal effect; tags give direction and shape of the fitted curve.

| Compound | Potency | activity, negative = inhibition |
| --- | --- | --- |
| COc1ccccc1C(=O)Nc1nnc(SCc2cc(=O)c3ccccc3[nH]2)s1 | inconclusive: 25.1 µM [inhibitor, single point] |  |
| CCOc1ccc(C(NC(=O)CC)c2c(O)ccc3ccccc23)cc1 (configuration not stated) | inconclusive: 12.6 µM [inhibitor, partial curve] |  |
| CCN(C(=O)c1ccc(C(=O)N(CC)c2ccccc2C)cc1)c1ccccc1C | inconclusive: 3.55 µM [inhibitor, partial curve, poor fit] |  |
| Nc1nc(CCl)nc(N(c2ccccc2)c2ccccc2)n1 | inconclusive: 1.12 µM [inhibitor, full curve, poor fit] |  |
| COc1ccc(Sc2cnn(-c3ccccc3)c(=O)c2Cl)cc1 |  | inactive: -8.19% |
| COc1cccc(N(C(=O)Cn2nnc(-c3cccs3)n2)C(C(=O)NC2CCCCC2)c2ccncc2)c1 (configuration not stated) | inconclusive: 2.82 µM [inhibitor, partial curve] |  |
| OC(c1ccc(F)cc1)c1nc(-c2cccc(F)c2)cs1 (configuration not stated) |  | inactive: -8.39% |
| CCOC(=O)c1ccccc1NC(=O)COC(=O)CCC(=O)c1ccccc1 |  | inactive: 2.58% |
| Cc1nc(C(=O)N2CCCC(C(=O)c3cccc(OC(C)C)c3)C2)cs1 (configuration not stated) | inconclusive: 7.94 µM [inhibitor, partial curve] |  |
| COc1ccc(CN2CCN(CC(O)Cn3c4ccccc4c4ccccc43)CC2)cc1 (configuration not stated) | inconclusive: 25.1 µM [inhibitor, single point] |  |
| COc1ccc(/C=N/NS(=O)(=O)c2ccccc2)cc1OS(=O)(=O)c1ccccc1 | inconclusive: 12.6 µM [inhibitor, partial curve] |  |
| CC(Nc1nc(-c2cccnc2)nc2ccccc12)c1ccc(F)cc1 (configuration not stated) | inconclusive: 35.5 µM [inhibitor, single point] |  |
| O=C(NCC1CCCO1)c1cc2cc(Cl)ccc2[nH]1 (configuration not stated) |  | inactive: -23.3% |
| CCN(CC)C(=O)CSc1n[nH]c(=O)n1CCc1ccccc1 |  | inactive: -9.02% |
| COc1cc(/C=C/C(=O)OCC(=O)NCCN2C(=O)CSC2=O)ccc1OCC#N |  | inactive: -2.09% |
| COc1ccc(OC)c(N2C(=O)C(Cl)=C(N3CCOCC3)C2=O)c1 | inconclusive: 20 µM [inhibitor, single point] |  |
| COc1ccc2c(c1)sc(=NC(=O)CS(=O)(=O)c1ccc(F)cc1)n2C |  | inactive: 0% |
| Cc1ccc(NC(=O)Cc2csc(-c3ccccc3)n2)cc1F |  | inactive: 0.494% |
| Cc1nc(Nc2nc(CSc3ccc(Cl)cc3)cc(=O)[nH]2)nc2ccccc12 | inconclusive: 0.794 µM [inhibitor, full curve, poor fit] |  |
| CC(C)(CO)NS(=O)(=O)c1ccc2c(c1)Cc1cc(S(=O)(=O)NC(C)(C)CO)ccc1-2 |  | inactive: 6.43% |
| Cc1ccc(C)c(NC(=O)Nc2cc3c(cc2N2CCCCC2)n(C)c(=O)n3C)c1 | inconclusive: 35.5 µM [inhibitor, single point] |  |
| CCOc1ccccc1CNC(=O)c1cnn(-c2ccc(C)cc2)c1-n1cccc1 | inconclusive: 17.8 µM [inhibitor, partial curve, poor fit] |  |
| Cc1ccc(NC(=O)CCN2C(=O)OC(C)(C)C2(C)O)cc1 (configuration not stated) | inconclusive: 35.5 µM [inhibitor, single point] |  |

| Compound | Potency | activity, negative = inhibition |
| --- | --- | --- |
| Cc1cc(/C=N/NC(=O)c2ccncc2)c(C)n1-c1ccccc1 |  | inactive: 1.4% |
| CC(C)=CCC/C(C)=C/CNC(=O)C[C@H]1C[C@H](C(=O)N(C(C)C)C(C)C)[C@@]2(C)c3[nH]c4cc(CCC(=O)N(C)C)ccc4c3CCN2C1=O | inconclusive: 22.4 µM [inhibitor, single point] |  |
| Cc1ccc(C(=O)N(CCc2ccccc2)Cc2ccccc2)cc1S(=O)(=O)N1CCOCC1 | inconclusive: 20 µM [inhibitor, single point] |  |
| Oc1ccc(Br)cc1-c1cc(-c2ccccc2)n[nH]1 |  | inactive: 0% |
| O=C(CC1CCCCC1)Nc1ccc(-c2ccc3nncn3n2)cc1 |  | inactive: -16.4% |
| CCOC(=O)c1cc(-c2ccccc2)n(CC(=O)Nc2cccc(OC)c2)c1C | inconclusive: 35.5 µM [inhibitor, single point] |  |
| COC(=O)[C@H]1[C@H]2C[C@@H]3c4[nH]c5cc(OC)ccc5c4CCN3C[C@H]2C[C@@H](OC(=O)c2ccc(N)cc2)[C@@H]1OC | inconclusive: 11.2 µM [inhibitor, partial curve, poor fit] |  |
| CCCn1c(=O)sc2cc(NC(=O)c3ccccc3Cl)ccc21 | inconclusive: 31.6 µM [inhibitor, single point] |  |
| COc1cccc(C(=O)N2N=C(c3ccccc3)CC2(O)C(F)(F)F)c1 (configuration not stated) | inconclusive: 25.1 µM [inhibitor, single point] |  |
| CCN(CC)C(=O)c1c(NC(=O)c2ccccc2F)sc2c1CCC(C(C)(C)C)C2 (configuration not stated) |  | inactive: -0.287% |
| CC(C)c1cccc(C(C)C)c1Nc1cn[nH]c1 | inconclusive: 20 µM [inhibitor, single point] |  |
| CC1CCN(S(=O)(=O)c2ccc(NC(=O)Cc3ccc(S(=O)(=O)N4CCOCC4)s3)cc2)CC1 | inconclusive: 1.78 µM [inhibitor, partial curve] |  |
| CC(C)(C)OC(=O)N1CCC(NC(=O)c2nc[nH]c2C(=O)NCc2ccccc2)CC1 | inconclusive: 14.1 µM [inhibitor, single point] |  |
| CCSc1ccccc1C(=O)N1CCN(c2nc3ccccc3s2)CC1 | inconclusive: 14.1 µM [inhibitor, partial curve, poor fit] |  |
| Cc1ccc(C(=O)C(C)OC(=O)c2cc(=O)[nH]c3ccccc23)cc1 (configuration not stated) | inconclusive: 6.31 µM [inhibitor, single point] |  |
| COc1cccc(NC(=O)c2oc3ccc(S(=O)(=O)N(C)C4CCCCC4)cc3c2C)c1 | inconclusive: 1.78 µM [inhibitor, full curve, poor fit] |  |
| Cc1cccc2c(C(O)c3cn(C)c4ccccc34)c[nH]c12 (configuration not stated) | inconclusive: 35.5 µM [inhibitor, single point] |  |
| CCOCCCNC(=O)c1ccc(Cn2c(=S)[nH]c3c([nH]c4ccc(OC)cc43)c2=O)cc1 |  | inactive: 19.9% |
| Nc1c(Cl)c(Cl)nc(C(=O)OCC(=O)NC2CCCCC2)c1Cl | inconclusive: 2.82 µM [inhibitor, partial curve, poor fit] |  |
| N#Cc1c(-c2ccc(Cl)cc2)cc(-c2ccccc2)nc1SCC(=O)O | inconclusive: 22.4 µM [inhibitor, single point] |  |
| COC(=O)c1ccc(NC(=O)c2cnn(-c3ccc(Cl)cc3)c2C2CCN(C(=O)OC(C)(C)C)CC2)cc1 | inconclusive: 2 µM [inhibitor, partial curve, poor fit] |  |
| COc1ccccc1C(=O)Nc1cccc(OCc2cc(=O)n3ccccc3n2)c1 | inconclusive: 3.16 µM [inhibitor, single point] |  |
| COc1cccc(C(C)(O)c2nc(-c3ccccc3C)cs2)c1 (configuration not stated) | inconclusive: 35.5 µM [inhibitor, single point] |  |

| Compound | Potency | activity, negative = inhibition |
| --- | --- | --- |
| CCn1nccc1C(=O)Nc1ccc(S(=O)(=O)NC23CC4CC(CC(C4)C2)C3)cc1 | inconclusive: 35.5 µM [inhibitor, single point] |  |
| COC(=O)c1ccc(CNC(=O)Cn2cnc3c(SC)nc(N)nc32)cc1 | inconclusive: 31.6 µM [inhibitor, single point] |  |
| Cc1ccc2nc(-c3ccc(NC(=O)CN4C(=O)NC(C)(c5ccc(OC(F)F)cc5)C4=O)cc3)sc2c1 (configuration not stated) | inconclusive: 14.1 µM [inhibitor, single point] |  |
| COc1ccccc1NC(=O)CSc1nnc(NC(=O)C2CC2)s1 |  | inactive: -5.45% |
| COC(=O)[C@H](CC(C)C)NCc1cccc(CN[C@@H](CC(C)C)C(=O)OC)c1 | inconclusive: 1.12 µM [inhibitor, full curve] |  |
| CCOC(=O)C1CCN(C(=O)COC(=O)CSc2ccccc2C)CC1 |  | inactive: -5.71% |
| CCOc1ccc(C(=O)N2CC(=O)Nc3ccc(C)cc3C2c2ccc(F)cc2)cc1OCC (configuration not stated) | inconclusive: 10 µM [inhibitor, single point] |  |
| CCOC(=O)C(C)N1C(=O)S/C(=C\c2ccc(-c3ccccc3C(=O)O)o2)C1=O (configuration not stated) |  | inactive: 3.82% |
| O=C(CCCOc1ccccc1)Nc1nnc(C2CCCO2)s1 (configuration not stated) | inconclusive: 5.62 µM [inhibitor, single point] |  |
| COc1ccc(N2C(=O)c3ccccc3NC2c2ccc(OC)c(COc3ccccc3F)c2)cc1 (configuration not stated) |  | inactive: -0.536% |
| CN(C(=O)c1ccc(NC(=O)C2CCCN(C(=O)OC(C)(C)C)C2)cc1)C1CCCCC1 (configuration not stated) |  | inactive: -32.8% |
| Cc1c(Cc2ccccc2)c(=O)oc2c(CN(C)C)c(O)c(Cl)cc12 |  | inactive: 2.46% |
| CCN(CC)CCCNC(=O)c1cn(CC)c2ccc(S(=O)(=O)N3CCC(C)CC3)cc2c1=O | inconclusive: 3.16 µM [inhibitor, single point] |  |
| COCCn1c(COc2ccc(C)cc2)nc2ccccc21 | inconclusive: 35.5 µM [inhibitor, single point] |  |
| CCC(C)[C@H]1COCCS(=O)(=O)N1Cc1ccc(Cl)cc1Cl (some centres not stated) | active: 10 µM |  |
| Cc1cc(C)cc(Cn2c3ccc(NC(=O)NCCc4cccs4)cc3c(=O)n2C)c1 | inconclusive: 22.4 µM [inhibitor, single point] |  |
| O=C(Nc1cnn(Cc2ccc(Cl)cc2Cl)c1)c1noc2c1CCCC2 | active: 15.8 µM |  |
| CCn1c(SCC(=O)Nc2ccc3c(c2)c2ccccc2n3CC)nnc1-c1cnccn1 | inconclusive: 3.55 µM [inhibitor, partial curve] |  |
| Cn1nnnc1NCc1ccccc1F |  | inactive: 1.65% |
| COc1ccc(NC(=O)c2ccco2)cc1NC(=O)c1cc2ccccc2o1 |  | inactive: -1.82% |
| CCOC(=O)c1cccc(-c2ccc(C=O)o2)c1 | inconclusive: 10 µM [inhibitor, partial curve] |  |
